# From the supplement of paper PMC3334620
# Over roughly 33,000 sequences, “E-score (-0.5 to 0.5)” has its median near -0.053; the highest 2% begin near 0.37. This is one part of the list.
# Molecular target: Hap1 (UniProt P0CE41)
# Assay: PBM E-score (8-mer binding enrichment) (E-score (-0.5 to 0.5)); higher = stronger / more preferred TF binding; most listed sequences are background and not binding sites
# Conditions: protein concentration: 200 nM; construct: GST-DNA-binding domain
# How it was run: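 E-scores (a modified Wilcoxon-Mann-Whitney statistic) were assigned by the Universal PBM Analysis Suite to every ungapped eight-base word pooled with its reverse complement. The input came from universal all-10-mer Agilent arrays made double-stranded by primer extension and probed with GST-tagged yeast transcription factors at about 100-200 nM. Fluorescent anti-GST detected bound protein, and masliner normalised the scans.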
# UniProt P0CE41, sequence (P0CE41 whole entry): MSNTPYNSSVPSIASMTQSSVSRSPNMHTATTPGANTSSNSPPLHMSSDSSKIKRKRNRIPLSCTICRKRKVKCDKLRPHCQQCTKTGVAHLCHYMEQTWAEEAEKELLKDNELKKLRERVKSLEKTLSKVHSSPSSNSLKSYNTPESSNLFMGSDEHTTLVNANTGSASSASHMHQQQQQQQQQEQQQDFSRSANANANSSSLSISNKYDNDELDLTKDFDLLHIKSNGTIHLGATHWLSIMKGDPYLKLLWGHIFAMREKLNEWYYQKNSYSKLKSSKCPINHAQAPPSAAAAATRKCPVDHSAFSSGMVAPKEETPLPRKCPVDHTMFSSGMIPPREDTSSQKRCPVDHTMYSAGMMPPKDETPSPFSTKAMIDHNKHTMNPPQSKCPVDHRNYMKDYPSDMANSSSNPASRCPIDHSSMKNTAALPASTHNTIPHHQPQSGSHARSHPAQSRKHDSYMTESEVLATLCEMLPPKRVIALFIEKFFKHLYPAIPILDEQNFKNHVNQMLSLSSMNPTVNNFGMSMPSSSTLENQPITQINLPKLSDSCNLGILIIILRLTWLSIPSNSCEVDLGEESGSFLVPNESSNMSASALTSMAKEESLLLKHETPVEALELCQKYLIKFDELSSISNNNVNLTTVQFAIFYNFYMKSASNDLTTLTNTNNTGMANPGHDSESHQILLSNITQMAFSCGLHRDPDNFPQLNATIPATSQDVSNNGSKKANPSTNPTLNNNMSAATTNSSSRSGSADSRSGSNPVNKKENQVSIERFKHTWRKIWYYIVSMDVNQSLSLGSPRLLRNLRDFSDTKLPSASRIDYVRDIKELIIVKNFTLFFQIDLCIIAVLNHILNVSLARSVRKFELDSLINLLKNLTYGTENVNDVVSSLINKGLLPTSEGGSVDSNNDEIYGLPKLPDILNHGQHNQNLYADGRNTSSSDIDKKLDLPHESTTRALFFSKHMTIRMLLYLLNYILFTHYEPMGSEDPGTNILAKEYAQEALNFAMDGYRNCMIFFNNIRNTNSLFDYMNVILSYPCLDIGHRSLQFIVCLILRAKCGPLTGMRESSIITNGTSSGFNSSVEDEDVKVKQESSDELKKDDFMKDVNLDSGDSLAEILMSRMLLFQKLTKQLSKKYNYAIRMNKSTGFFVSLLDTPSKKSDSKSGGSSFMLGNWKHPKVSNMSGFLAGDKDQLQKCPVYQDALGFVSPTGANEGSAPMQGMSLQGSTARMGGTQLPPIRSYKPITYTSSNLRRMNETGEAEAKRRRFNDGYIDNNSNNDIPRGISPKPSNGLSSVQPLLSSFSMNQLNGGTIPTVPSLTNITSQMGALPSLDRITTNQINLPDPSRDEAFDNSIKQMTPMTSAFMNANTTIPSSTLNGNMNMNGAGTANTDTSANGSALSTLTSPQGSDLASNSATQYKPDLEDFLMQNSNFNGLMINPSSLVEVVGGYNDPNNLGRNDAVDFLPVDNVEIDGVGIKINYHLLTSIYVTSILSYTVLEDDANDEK
row,Sequence,PBM E-score
1,GACGTTGC,0.0401
2,AGGTACCC,-0.28
3,CTTATAGC,-0.0598
4,CATCCAAC,-0.0274
5,AGACTGCC,-0.0881
6,CACCACCG,0.16
7,ACTAAGCT,-0.262
8,AGAAGCGG,0.0122
9,CCGTGGGC,0.291
10,AGCCAGTC,-0.124
11,AGTTTGAG,-0.0293
12,AGTATGAA,0.0714
13,CAGAGGGC,0.00727
14,ACTACAGG,-0.0138
15,ATGACGAA,-0.159
16,CTACCAGC,-0.319
17,ACTCGGAC,0.385
18,ACGGAATC,0.28
19,AAAAGTCG,-0.0425
20,GTGATTAA,0.0319
21,GATTCTAC,-0.0077
22,GCACGACA,-0.176
23,TCGAGAGA,-0.0617
24,GCAGCCAC,-0.0056
25,ATACTCCA,-0.15

row,Sequence,PBM E-score
1,ACCCTGTG,-0.188
2,CCCGGTTA,0.268
3,CGAACTCA,-0.00342
4,CAATCTCA,-0.165
5,CGGCCGCA,0.297
6,AAACCAGT,-0.276
7,AACTCCAT,0.139
8,GCGGTTCC,0.0594
9,AAACGCGT,0.0275
10,GATGTCGA,-0.0856
11,CTAAGCCC,0.142
12,AATATTTC,0.132
13,AGTTTGCG,-0.044
14,TAGGAGCA,-0.298
15,CTGCCCTA,-0.191
16,AAGAATGG,0.0742
17,CGATCGTA,-0.0164
18,AACTGGCG,-0.0139
19,CTACCTAG,-0.204
20,AAGGTAAT,-0.016
21,CGAGGGAC,-0.193
22,ATACGCTG,0.0262
23,ATTCTATA,0.0581
24,TCCTATCA,-0.0726
25,CATGGGCG,0.0306

row,Sequence,PBM E-score
1,CTAAGGTC,-0.243
2,GGACGAGA,0.241
3,CTACAAGC,-0.099
4,GGTAGCGA,-0.021
5,CTCGTTCC,0.0324
6,ACAAAATG,-0.0196
7,CGTCACAA,-0.0741
8,CGAGACCA,0.0818
9,ATTCGTAA,-0.14
10,GATACCGC,0.23
11,ATCATGTA,-0.282
12,CAGTTAGA,-0.152
13,GCCTGAGA,0.0572
14,AAGAACTC,-0.0344
15,ATGTCATG,-0.228
16,TATACACA,-0.256
17,GCAAGCAC,-0.244
18,ATGACACA,-0.107
19,CTTCCTCA,-0.237
20,AATTGATA,-0.165
21,ATGATCGC,0.209
22,CCCCTCTC,-0.0864
23,AGCGGGAA,0.207
24,CCTTAACC,-0.144
25,CGGATACA,0.385

row,Sequence,PBM E-score
1,AATTGACG,-0.113
2,GATTAGGC,0.0499
3,ACGATTAC,-0.164
4,CATGGCCA,-0.19
5,CCAGAGCA,-0.0247
6,AGATCCTG,-0.0691
7,CAGTACCA,-0.177
8,CCGCATCA,0.2
9,GTTACGCA,-0.0767
10,CAGTGGAA,-0.137
11,AGAAGTTC,-0.229
12,CTGCTTCC,0.0898
13,CTATACGC,-0.028
14,ATAATGGC,0.0861
15,GTCGAAAA,-0.0295
16,AATGCTCC,0.122
17,AGCCTGGG,-0.00831
18,CAACCTAG,-0.187
19,CAGTCCCA,-0.276
20,ATCCGGGG,0.399
21,TGGCGACA,-0.155
22,AATTAACA,-0.0987
23,TAAAACTA,-0.135
24,AAGGTGTA,-0.0687
25,CACTGCCA,-0.264

row,Sequence,PBM E-score
1,AAAGCATT,-0.164
2,CCATGCAA,0.0389
3,GCGACTAC,0.0144
4,ACAACTCC,0.13
5,ACTGGCTG,0.0393
6,GGGGGACC,-0.109
7,CGATCTAA,-0.0937
8,AACCCAGT,-0.0336
9,CAATGGTC,-0.186
10,CAAATCCG,0.344
11,AAAGGTTC,-0.127
12,TCAGTGCA,-0.0759
13,AAGGGAAG,-0.0953
14,CTTGGTCC,0.12
15,CACAACAG,-0.319
16,AGAATACG,0.00095
17,GAACACAC,-0.135
18,CAGCAGGA,-0.153
19,AACCGGGA,0.193
20,GCTTAACA,0.0307
21,CGGCCCCA,0.0542
22,ATCGAGCC,-0.0145
23,TCGGTGCA,0.291
24,TAGTGGAA,0.11
25,CTCACATA,-0.189

row,Sequence,PBM E-score
1,TGAAGGCA,-0.35
2,CATGCATA,-0.164
3,CGGCGATC,0.31
4,CCGGCAGA,0.254
5,GCGCCGGA,0.368
6,GACCAGGC,-0.266
7,ACGCTTAT,-0.157
8,AGATTAGC,-0.152
9,GTGCAGAA,-0.0502
10,AGAGACAG,-0.197
11,GAGTCCTA,-0.202
12,ATAGGGTA,-0.129
13,GCAGAGCA,-0.26
14,AACTCCAC,0.0468
15,AAGGTCAA,-0.194
16,CTTGCGAC,-0.0152
17,TAATTCCA,0.133
18,ATTTGGAA,-0.187
19,CTAGGATC,-0.0458
20,AGAATGAT,-0.0898
21,AAGTACTC,-0.147
22,CAATAGTA,-0.148
23,AAATCCAG,0.0422
24,GTTCGTAA,-0.078
25,GTTGTCCA,-0.223

row,Sequence,PBM E-score
1,AGCTGTGA,-0.188
2,CTTTAGTA,-0.168
3,TAGGTATA,-0.0795
4,AAATATGC,-0.0716
5,GAATGGAC,-0.116
6,CCGTATTA,0.159
7,AAATCCCA,-0.0185
8,CCAACCGC,0.153
9,GGTGGCTA,-0.148
10,TCCGCCCA,0.209
11,AAGATTAT,0.0146
12,CCGGGTCC,0.323
13,TAATACAA,-0.049
14,AATTTAGA,-0.0145
15,GATTATTA,0.0888
16,GTTGCAGA,-0.182
17,TTCTACAA,-0.169
18,TCCCTTAA,-0.119
19,CGCCTAGA,0.0566
20,CATAGGCA,-0.24
21,GGGAAGTA,0.0898
22,TCCCCGAA,0.335
23,GGTCCTAA,0.188
24,CCGCTGTA,0.02
25,CGCCCACG,0.13

row,Sequence,PBM E-score
1,ACGACTCA,-0.0362
2,CAATCGCA,-0.0861
3,GTCACTTA,0.0704
4,ATGGGCCG,0.209
5,TTAATTAA,-0.0765
6,GACGCATC,0.0595
7,ATTCGTCA,-0.151
8,ACCCTGAC,-0.121
9,GGATCTGA,-0.0297
10,AGTATCTA,-0.229
11,CCTTAGGC,-0.184
12,AGTGTGCG,-0.00284
13,ATGGTGTC,-0.209
14,ACGATTCC,0.0745
15,CAATGGGA,0.0526
16,ATGGTATC,-0.0144
17,GTTATTGA,-0.0768
18,GAAGAGCC,0.0682
19,AGTCCGTA,0.269
20,CCCCTATC,-0.0338
21,ACCGCACG,-0.0174
22,ACTCGCAC,0.0265
23,ATATAGTG,0.0257
24,CCCGTCGG,0.323
25,CAATTGCG,-0.09

row,Sequence,PBM E-score
1,GTTCACTA,0.00099
2,AATGTTCC,0.12
3,AGGTCATC,0.0639
4,GCCCCAAC,0.0345
5,ACAGCCTA,0.0258
6,ATCAACTG,0.0174
7,AAGAGGTC,-0.0848
8,GCCGTTAA,0.346
9,ACATAGCG,0.0823
10,CTTTGCAC,-0.237
11,CAGGAGAC,-0.0507
12,GCATCCTA,-0.103
13,TCAAGTAA,-0.286
14,CTTAAATC,0.114
15,GCGTTCAA,-0.207
16,ATAAGCCG,0.3
17,CTCGTTCA,-0.206
18,CCAGTTAC,-0.143
19,ATCCCAGG,-0.0222
20,CCTAAAAA,0.00566
21,TGGCAAAA,-0.153
22,ATTTGTGG,-0.0447
23,ACAATTAT,-0.0401
24,ACCAGACT,-0.396
25,ACGAAGTG,-0.135

row,Sequence,PBM E-score
1,AGCCTGCC,-0.0268
2,GGCGCCGA,0.313
3,AACGAACA,0.116
4,CAACGTCA,-0.165
5,TCCAAAAA,-0.146
6,GAGACCGA,0.302
7,GTAATGGA,-0.0964
8,GACCATGC,-0.087
9,AAGACTTC,-0.137
10,ACTCCTGG,-0.171
11,CCGATACG,0.42
12,CCGTCAGG,-0.042
13,CGTTGCCC,0.0882
14,GAATTGGA,-0.155
15,CCCCTAAG,-0.196
16,CACGTAGC,-0.152
17,CATGAACC,0.0749
18,TGACTCCA,-0.243
19,TTAATAAA,0.0578
20,CACGTTCG,0.0803
21,CTAGGAGA,-0.216
22,AACCGCGT,0.0872
23,ATACAAAC,0.0333
24,GTACTTAA,-0.072
25,CACAGGTC,-0.11

row,Sequence,PBM E-score
1,ATAGGCCG,0.203
2,CGCGTGGA,-0.079
3,CGTGGCAG,-0.0988
4,GTTAGGGA,-0.253
5,GTCAACCA,-0.311
6,ATGACGAC,-0.0583
7,ACTAAACA,-0.15
8,CGTCATTA,-0.0252
9,AACCAACA,-0.103
10,ATCATCCC,-0.00016
11,CGTTTATC,0.153
12,ATAGTGGG,0.12
13,ACCACGCG,-0.00309
14,AGTGGTGC,-0.137
15,AGGTGAGC,-0.13
16,ACCCCCTG,-0.177
17,GCCTGACC,0.145
18,GCCTAGGC,-0.182
19,CCTGGCTC,-0.16
20,ACGTCTAG,-0.181
21,AGTGACCG,0.117
22,ACTCACGG,0.169
23,ACCGTGGA,0.141
24,CAGTAAGA,-0.182
25,CCGACGAA,0.291

row,Sequence,PBM E-score
1,AGTCTCAG,-0.266
2,ATCTACTA,-0.0474
3,AAGCCATG,-0.0552
4,ATGTTAAC,-0.0143
5,ACTGTTTA,-0.249
6,AACATAAG,-0.00094
7,CACTCAGG,-0.2
8,AACCCACC,0.0785
9,AGCAGCTA,-0.212
10,GACACCGA,0.254
11,CCAATCGA,-0.034
12,GATACTTA,-0.0679
13,GATCCCCA,0.149
14,CGAATCTA,-0.0204
15,CCCTGTTC,-0.169
16,TGGCAGAA,-0.0128
17,CAACTGGG,-0.122
18,ATCTCGCG,0.0899
19,GAGCACAC,-0.175
20,GTTGCATA,-0.185
21,CTTCCAAG,-0.197
22,GCTGCCCC,-0.0982
23,ACCCATAA,0.194
24,AGGCATGG,-0.0848
25,CAGTTAAC,0.129

row,Sequence,PBM E-score
1,GCCCCCTA,-0.185
2,AGATCGAG,-0.0407
3,CGCCCGCA,0.189
4,CACGCTAA,-0.0232
5,AGTGCCTG,-0.0491
6,GGAAGTCA,0.0587
7,AGCATGCC,-0.131
8,GGGGTCAA,0.0491
9,AAACGAGA,-0.0201
10,AATGCTTA,-0.138
11,GTCGATCA,-0.19
12,GGTTTCAA,0.185
13,GCCCGGTA,0.38
14,ACTTTCTC,0.0761
15,CGTAAATA,0.0779
16,ATTTTCCG,0.413
17,ATTCGTTA,-0.0198
18,AATCTTGA,-0.202
19,AATGCATG,-0.0416
20,CGGACTGC,0.182
21,ATTGAGCG,-0.00769
22,AGCGCCCG,0.288
23,ACACCGTC,0.169
24,CTAGTAGA,-0.0309
25,CACGGCCC,0.00734

row,Sequence,PBM E-score
1,CTTGGGAA,-0.138
2,AATAGAAC,0.00613
3,CAGTTGAC,-0.115
4,CCGCGCCA,0.128
5,GCGTTGAA,0.0409
6,GATGTCCC,0.0832
7,ATTTTCGA,-0.0541
8,GCCTTAGC,-0.103
9,GTGGTCTA,-0.121
10,AACTAGAA,-0.192
11,GTCAGGAC,-0.211
12,CCTAACCC,0.0154
13,ACGATGCT,-0.185
14,CTTCAACC,-0.134
15,GCAGGCCC,-0.138
16,ATATGGAC,-0.0394
17,CCCATTCC,-0.0938
18,AAACTCCC,0.189
19,AAGATTAG,0.0226
